The target in experiment [1] is C-terminally HA-tagged full-length TANGO1 (human) (UniProt Q5JRA6). Nature of the experiment: co-IP; HA-tagged TANGO1 constructs transfected in HEK293T cells and immunoprecipitated; samples probed for NBAS, RINT1, cTAGE5 and ZW10; lysis in 50 mM Tris-HCl pH 7.4, 150 mM NaCl, 1 mM EDTA, 2% CHAPS; washes TBS/0.5% CHAPS.
The target of experiment [2] is TANGO1Δ1255–1295 (human) (UniProt Q5JRA6). Described as above.
Experiment [3] addresses TANGO1Δ1296–1336 (human) (UniProt Q5JRA6). The description is as above.
For experiment [4], the target named is C-terminally HA-tagged full-length TANGO1 (human) (UniProt Q5JRA6). As to the kind of experiment: co-IP; HEK293T cells with TANGO1-FLAG and the indicated HA-tagged TANGO1 construct; lysates and immunoprecipitated samples probed for HA, FLAG and cTAGE5; lysis in 50 mM Tris-HCl pH 7.4, 150 mM NaCl, 1 mM EDTA, 2% CHAPS; washes TBS/0.5% CHAPS.
Experiment [5] deals with TANGO1Δ1255–1295 (human) (UniProt Q5JRA6). Described as above.
For experiment [6], the target named is TANGO1Δ1296–1336 (human) (UniProt Q5JRA6). Described as above.

Sequences of proteins named here, by UniProt entry; tags and fusion partners are left off. A change or cut given only in a name is not applied to a line headed by its entry. A line that says so, or that is headed by a name, gives the form on record, which may keep a tag or linker. Residues count along the entry.
C-terminally HA-tagged full-length TANGO1 (Q5JRA6, residues 23-1907): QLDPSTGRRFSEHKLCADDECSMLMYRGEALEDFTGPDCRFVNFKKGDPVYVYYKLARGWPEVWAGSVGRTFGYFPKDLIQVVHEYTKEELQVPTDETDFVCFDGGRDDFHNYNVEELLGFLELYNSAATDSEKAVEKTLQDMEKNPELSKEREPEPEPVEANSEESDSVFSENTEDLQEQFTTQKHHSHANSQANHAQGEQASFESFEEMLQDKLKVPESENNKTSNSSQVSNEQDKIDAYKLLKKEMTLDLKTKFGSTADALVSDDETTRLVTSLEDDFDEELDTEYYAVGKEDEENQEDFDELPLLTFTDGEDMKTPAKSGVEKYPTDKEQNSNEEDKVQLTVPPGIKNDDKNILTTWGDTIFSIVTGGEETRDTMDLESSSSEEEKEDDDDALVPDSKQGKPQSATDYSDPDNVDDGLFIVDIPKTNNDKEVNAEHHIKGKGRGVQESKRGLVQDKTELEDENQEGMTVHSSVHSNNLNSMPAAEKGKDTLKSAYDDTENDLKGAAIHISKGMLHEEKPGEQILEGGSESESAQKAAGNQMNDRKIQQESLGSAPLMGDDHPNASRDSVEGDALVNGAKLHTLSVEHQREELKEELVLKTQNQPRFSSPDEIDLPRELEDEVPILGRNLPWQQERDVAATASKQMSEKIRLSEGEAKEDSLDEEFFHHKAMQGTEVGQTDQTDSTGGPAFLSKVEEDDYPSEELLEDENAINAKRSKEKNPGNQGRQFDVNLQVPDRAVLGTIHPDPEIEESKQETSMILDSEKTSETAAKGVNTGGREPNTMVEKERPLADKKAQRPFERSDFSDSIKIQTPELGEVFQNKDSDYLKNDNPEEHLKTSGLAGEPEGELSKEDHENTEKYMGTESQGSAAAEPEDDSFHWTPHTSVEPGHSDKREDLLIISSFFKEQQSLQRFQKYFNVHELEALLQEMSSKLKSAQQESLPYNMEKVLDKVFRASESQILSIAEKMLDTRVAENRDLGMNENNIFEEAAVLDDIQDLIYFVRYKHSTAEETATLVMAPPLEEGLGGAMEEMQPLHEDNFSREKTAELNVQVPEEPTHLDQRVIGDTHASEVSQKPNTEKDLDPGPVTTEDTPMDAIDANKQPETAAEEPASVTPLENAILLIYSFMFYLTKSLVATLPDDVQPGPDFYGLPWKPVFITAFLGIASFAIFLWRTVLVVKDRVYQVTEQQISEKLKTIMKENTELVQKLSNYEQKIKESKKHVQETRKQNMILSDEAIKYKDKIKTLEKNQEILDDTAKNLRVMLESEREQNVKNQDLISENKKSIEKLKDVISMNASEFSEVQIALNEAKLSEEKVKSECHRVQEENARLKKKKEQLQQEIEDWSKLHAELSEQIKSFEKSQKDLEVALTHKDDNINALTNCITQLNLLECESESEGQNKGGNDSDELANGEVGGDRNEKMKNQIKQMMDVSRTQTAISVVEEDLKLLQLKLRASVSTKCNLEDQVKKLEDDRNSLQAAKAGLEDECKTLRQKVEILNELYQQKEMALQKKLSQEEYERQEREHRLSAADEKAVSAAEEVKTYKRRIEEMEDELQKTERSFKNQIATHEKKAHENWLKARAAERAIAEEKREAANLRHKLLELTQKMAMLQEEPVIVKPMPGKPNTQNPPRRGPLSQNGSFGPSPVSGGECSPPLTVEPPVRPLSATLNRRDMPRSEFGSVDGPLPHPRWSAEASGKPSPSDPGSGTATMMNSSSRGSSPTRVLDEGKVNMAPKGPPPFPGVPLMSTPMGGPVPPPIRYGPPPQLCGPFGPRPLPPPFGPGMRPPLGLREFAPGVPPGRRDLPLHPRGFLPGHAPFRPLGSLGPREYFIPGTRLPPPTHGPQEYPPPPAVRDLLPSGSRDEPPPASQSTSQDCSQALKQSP
TANGO1Δ1255–1295 (Q5JRA6, form named): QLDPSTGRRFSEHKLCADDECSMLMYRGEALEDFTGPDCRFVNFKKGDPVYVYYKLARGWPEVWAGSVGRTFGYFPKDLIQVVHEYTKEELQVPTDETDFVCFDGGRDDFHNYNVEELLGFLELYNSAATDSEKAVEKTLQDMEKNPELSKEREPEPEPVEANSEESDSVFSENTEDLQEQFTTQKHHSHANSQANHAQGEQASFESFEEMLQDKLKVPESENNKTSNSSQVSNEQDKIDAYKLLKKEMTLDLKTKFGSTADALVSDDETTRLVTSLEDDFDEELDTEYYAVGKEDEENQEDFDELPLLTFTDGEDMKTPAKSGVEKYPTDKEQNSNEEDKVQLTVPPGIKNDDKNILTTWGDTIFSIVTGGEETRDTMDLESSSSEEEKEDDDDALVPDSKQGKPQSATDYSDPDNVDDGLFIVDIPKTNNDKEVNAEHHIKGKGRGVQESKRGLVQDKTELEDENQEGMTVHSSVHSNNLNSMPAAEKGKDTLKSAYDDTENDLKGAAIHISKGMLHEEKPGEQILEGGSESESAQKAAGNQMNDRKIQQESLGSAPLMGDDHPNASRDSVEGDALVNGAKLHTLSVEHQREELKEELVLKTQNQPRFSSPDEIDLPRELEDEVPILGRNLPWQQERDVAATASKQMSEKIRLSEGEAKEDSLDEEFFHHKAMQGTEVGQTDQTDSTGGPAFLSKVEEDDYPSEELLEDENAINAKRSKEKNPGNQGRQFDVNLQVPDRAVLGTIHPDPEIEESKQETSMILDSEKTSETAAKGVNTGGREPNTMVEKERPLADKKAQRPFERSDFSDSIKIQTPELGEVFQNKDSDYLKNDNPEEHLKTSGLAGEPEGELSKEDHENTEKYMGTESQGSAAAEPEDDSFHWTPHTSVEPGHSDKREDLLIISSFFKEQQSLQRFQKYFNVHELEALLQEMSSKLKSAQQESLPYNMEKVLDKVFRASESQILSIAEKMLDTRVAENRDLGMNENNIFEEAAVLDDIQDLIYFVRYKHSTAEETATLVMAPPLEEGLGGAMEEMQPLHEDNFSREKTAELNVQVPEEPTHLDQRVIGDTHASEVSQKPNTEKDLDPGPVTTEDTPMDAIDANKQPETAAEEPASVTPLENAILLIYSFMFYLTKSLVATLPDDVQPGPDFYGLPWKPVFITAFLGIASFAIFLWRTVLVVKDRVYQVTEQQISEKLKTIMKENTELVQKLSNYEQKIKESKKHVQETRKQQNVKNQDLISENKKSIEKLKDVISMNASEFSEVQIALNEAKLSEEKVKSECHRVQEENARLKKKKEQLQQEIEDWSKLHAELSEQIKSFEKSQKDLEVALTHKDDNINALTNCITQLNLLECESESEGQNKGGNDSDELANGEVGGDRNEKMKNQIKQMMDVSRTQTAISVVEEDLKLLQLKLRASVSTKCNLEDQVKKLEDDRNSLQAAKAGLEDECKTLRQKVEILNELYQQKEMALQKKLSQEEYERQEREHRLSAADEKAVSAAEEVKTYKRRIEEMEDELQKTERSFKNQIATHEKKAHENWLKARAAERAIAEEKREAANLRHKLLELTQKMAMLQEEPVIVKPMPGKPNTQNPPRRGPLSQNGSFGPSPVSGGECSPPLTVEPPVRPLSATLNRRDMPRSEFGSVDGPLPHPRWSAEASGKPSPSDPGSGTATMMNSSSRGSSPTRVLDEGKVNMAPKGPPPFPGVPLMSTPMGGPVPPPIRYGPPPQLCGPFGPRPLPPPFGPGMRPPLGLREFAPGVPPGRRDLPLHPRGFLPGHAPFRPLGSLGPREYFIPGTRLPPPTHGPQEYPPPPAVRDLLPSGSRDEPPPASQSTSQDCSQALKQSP
TANGO1Δ1296–1336 (Q5JRA6, form named): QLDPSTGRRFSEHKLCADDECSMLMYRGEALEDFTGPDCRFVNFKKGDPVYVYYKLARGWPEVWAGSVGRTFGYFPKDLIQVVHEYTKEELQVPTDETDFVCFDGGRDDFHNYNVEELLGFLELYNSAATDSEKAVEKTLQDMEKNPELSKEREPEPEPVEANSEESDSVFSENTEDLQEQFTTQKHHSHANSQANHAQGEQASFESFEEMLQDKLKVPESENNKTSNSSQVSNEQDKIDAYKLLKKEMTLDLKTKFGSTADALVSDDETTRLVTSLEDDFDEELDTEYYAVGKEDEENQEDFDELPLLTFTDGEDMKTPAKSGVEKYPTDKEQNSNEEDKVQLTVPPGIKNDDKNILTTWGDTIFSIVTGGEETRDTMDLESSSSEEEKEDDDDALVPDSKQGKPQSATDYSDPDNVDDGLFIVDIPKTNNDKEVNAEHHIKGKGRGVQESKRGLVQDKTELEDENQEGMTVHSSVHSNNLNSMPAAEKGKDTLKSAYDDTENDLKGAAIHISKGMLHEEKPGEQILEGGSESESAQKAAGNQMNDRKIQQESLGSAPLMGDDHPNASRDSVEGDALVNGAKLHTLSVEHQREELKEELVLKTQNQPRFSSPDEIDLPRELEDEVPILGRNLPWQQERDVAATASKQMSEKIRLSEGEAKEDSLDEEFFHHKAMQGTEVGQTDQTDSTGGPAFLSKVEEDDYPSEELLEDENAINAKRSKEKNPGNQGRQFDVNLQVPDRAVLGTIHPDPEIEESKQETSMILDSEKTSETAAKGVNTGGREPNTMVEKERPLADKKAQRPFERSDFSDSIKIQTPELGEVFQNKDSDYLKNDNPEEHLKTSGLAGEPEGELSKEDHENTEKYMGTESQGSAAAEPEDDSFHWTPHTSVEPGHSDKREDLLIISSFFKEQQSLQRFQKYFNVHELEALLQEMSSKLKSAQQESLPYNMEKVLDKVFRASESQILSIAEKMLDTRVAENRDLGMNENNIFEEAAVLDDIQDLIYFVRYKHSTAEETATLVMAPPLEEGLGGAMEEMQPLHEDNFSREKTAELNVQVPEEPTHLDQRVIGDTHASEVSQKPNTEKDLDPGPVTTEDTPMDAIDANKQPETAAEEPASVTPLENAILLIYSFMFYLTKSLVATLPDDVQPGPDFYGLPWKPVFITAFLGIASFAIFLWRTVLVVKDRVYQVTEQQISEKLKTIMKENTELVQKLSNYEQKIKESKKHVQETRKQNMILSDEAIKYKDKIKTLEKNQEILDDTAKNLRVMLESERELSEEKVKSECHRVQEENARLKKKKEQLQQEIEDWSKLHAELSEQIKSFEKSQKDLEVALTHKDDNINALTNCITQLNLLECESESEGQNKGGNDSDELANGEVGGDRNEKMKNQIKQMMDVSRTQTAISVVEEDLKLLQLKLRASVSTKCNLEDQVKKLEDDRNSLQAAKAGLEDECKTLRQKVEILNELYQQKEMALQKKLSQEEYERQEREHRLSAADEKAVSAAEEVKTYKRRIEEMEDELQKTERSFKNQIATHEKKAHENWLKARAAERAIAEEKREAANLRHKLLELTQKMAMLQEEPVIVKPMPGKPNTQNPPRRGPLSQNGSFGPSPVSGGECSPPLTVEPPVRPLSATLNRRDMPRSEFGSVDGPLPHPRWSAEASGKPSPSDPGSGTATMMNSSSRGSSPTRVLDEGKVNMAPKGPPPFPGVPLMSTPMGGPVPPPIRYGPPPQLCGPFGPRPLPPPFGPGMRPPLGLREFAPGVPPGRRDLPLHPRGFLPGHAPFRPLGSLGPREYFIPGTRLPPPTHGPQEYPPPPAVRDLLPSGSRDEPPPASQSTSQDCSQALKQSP
UniProt Q6NUQ1: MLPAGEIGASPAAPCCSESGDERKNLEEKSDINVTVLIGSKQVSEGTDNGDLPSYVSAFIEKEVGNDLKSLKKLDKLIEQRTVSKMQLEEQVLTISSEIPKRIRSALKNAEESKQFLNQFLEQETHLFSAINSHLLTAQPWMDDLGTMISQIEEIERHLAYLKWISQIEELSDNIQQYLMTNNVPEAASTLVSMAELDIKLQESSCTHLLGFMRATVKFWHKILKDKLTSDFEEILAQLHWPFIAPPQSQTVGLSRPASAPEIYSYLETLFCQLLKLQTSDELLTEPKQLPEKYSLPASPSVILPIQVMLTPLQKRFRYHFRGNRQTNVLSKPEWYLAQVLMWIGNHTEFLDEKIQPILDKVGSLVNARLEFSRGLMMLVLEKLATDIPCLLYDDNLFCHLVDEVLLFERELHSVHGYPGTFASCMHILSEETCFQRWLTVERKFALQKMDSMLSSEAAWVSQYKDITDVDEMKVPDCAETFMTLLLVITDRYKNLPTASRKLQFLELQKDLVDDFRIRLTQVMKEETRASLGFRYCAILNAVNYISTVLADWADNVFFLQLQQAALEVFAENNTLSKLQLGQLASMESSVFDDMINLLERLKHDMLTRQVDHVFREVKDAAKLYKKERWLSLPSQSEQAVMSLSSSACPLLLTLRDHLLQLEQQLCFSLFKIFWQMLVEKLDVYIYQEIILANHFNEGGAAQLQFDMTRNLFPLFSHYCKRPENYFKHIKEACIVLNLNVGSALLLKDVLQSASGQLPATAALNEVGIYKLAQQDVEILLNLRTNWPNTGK

Results are given in words; binding and its absence hold for the method and conditions named. In cells and extracts the contact can be indirect. Some results given as binding are weak or reduced against the parent protein; the word gives no strength.

This passage reports binding results from PMC5851698.

For NBAS (from UniProt A2RRP1 1-2371), the binding entry in experiment [1] is listed as “binds”; with TANGO1Δ1255–1295 (human) [2] it was “no binding”; with TANGO1Δ1296–1336 (human) [3] it was “binds”.

With RINT1 (from UniProt Q6NUQ1 1-792), the binding entry in experiment [1] is listed as “binds”; with TANGO1Δ1255–1295 (human) [2] it was “no binding”; with TANGO1Δ1296–1336 (human) [3], “binds”.

With “TANGO1-FLAG (from UniProt Q5JRA6 23-1907)”, the binding entry in experiment [4] is “binds”; with TANGO1Δ1255–1295 (human) [5], “no binding”; with TANGO1Δ1296–1336 (human) [6] it was “binds”.

B1: ZW10 (protein, UniProt O43264 1-779)
chain: MASFVTEVLAHSGRLEKEDLGTRISRLTRRVEEIKGEVCNMISKKYSEFLPSMQSAQGLITQVDKLSEDIDLLKSRIESEVRRDLHVSTGEFTDLKQQLERDSVVLSLLKQLQEFSTAIEEYNCALTEKKYVTGAQRLEEAQKCLKLLKSRKCFDLKILKSLSMELTIQKQNILYHLGEEWQKLIVWKFPPSKDTSSLESYLQTELHLYTEQSHKEEKTPMPPISSVLLAFSVLGELHSKLKSFGQMLLKYILRPLASCPSLHAVIESQPNIVIIRFESIMTNLEYPSPSEVFTKIRLVLEVLQKQLLDLPLDTDLENEKTSTVPLAEMLGDMIWEDLSECLIKNCLVYSIPTNSSKLQQYEEIIQSTEEFENALKEMRFLKGDTTDLLKYARNINSHFANKKCQDVIVAARNLMTSEIHNTVKIIPDSKINVPELPTPDEDNKLEVQKVSNTQYHEVMNLEPENTLDQHSFSLPTCRISESVKKLMELAYQTLLEATTSSDQCAVQLFYSVRNIFHLFHDVVPTYHKENLQKLPQLAAIHHNNCMYIAHHLLTLGHQFRLRLAPILCDGTATFVDLVPGFRRLGTECFLAQMRAQKGELLERLSSARNFSNMDDEENYSAASKAVRQVLHQLKRLGIVWQDVLPVNIYCKAMGTLLNTAISEVIGKITALEDISTEDGDRLYSLCKTVMDEGPQVFAPLSEESKNKKYQEEVPVYVPKWMPFKELMMMLQASLQEIGDRWADGKGPLAAAFSSSEVKALIRALFQNTERRAAALAKIK
Regarding B1, the binding entry in experiment [1] is “binds”; with TANGO1Δ1255–1295 (human) [2] it was “no binding”; with TANGO1Δ1296–1336 (human) [3], “binds”.
